# Hit rate of the full screen: of about 310,000 compounds, about 18,000 (5.8%) were called active. This list was built around the results that the source calls inconclusive (neither active nor inactive); the mix of calls is not that of the screen. The call rests on the fitted dose curve; in most records, active means well fitted inhibition curve with a large enough effect; inconclusive means small, poorly fitted or top-dose-only effect, or another doubt; inactive means no such curve, though single readings can be large or run the other way. No potency is given beside an inconclusive call; the fits are too rough.
# Test: Primary qHTS for delayed death inhibitors of the malarial parasite plastid, 48 hour incubation
# Conditions: P. falciparum luciferase growth in erythrocytes; series mostly up to 28.7 µM; activity change, negative = inhibition: at the top concentration
# Outline: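 Erythrocytes infected with P. falciparum carrying an integrated firefly luciferase reporter (2% hematocrit, 0.1% parasitemia final) were exposed to compounds in RPMI 1640 with 0.5% Albumax at 37 C, 5% CO2. Growth inhibition was scored as reduced luminescence.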
# On the % scale 0 is the no-effect control and ±100 the full control effect; potency means the concentration at half of the fitted maximal effect; tags describe the fitted curve by direction and shape.
SMILES,Potency,"activity change, negative = inhibition"
Cc1ccc(-n2nnnc2CNC(=O)c2ccc([N+](=O)[O-])o2)cc1C,"inconclusive [inhibitor, single point]",
Cc1ccccc1NC(=O)CSc1nnc(Cc2cccn2C)n1-c1ccc(F)cc1,"inconclusive [inhibitor, single point]",
COc1ccc(Cl)cc1C(=O)Nc1ccccc1N1CCN(C)CC1,"inconclusive [inhibitor, partial curve]",
COc1ccc(C2/C(=C(/O)c3ccc(C)cc3)C(=O)C(=O)N2c2ccccn2)cc1 (stereo not given),,inactive: 32.2%
CN(C)S(=O)(=O)c1ccc(Cl)c(NC(=O)CSc2nc3c(cc2C#N)C(=O)CC(C)(C)C3)c1,"inconclusive [inhibitor, partial curve]",
COc1ccc(CCC(=O)OCC(=O)N(C)c2c(N)n(Cc3ccccc3)c(=O)[nH]c2=O)cc1,"inconclusive [inhibitor, partial curve]",
NC(=O)CC(NC(=O)Cc1ccc(Br)cc1)c1ccc(N2CCN(c3ccccc3)CC2)c([N+](=O)[O-])c1 (stereo not given),"inconclusive [inhibitor, single point]",
CCOCCc1nnc(NC(=O)CSc2ccccc2)s1,"inconclusive [inhibitor, single point]",
CCOc1ccc(NC(=O)c2ccccc2NC(=O)CN(C)CC(=O)Nc2ccc(C)cc2)cc1,active: 10.4 µM,
CCN(CC)S(=O)(=O)c1ccc(C(=O)Nc2nnc(-c3ccco3)o2)cc1,"inconclusive [inhibitor, single point]",
COCCCNC(=O)C1CC(=O)N(c2ccc(C)cc2)C1 (stereo not given),"inconclusive [inhibitor, partial curve, poor fit]",
O=C(Cc1ccccc1)NCCSC1CCCCC1,,inactive: 8.69%
Cc1cc(O)c(/C=N/Nc2ccccc2Cl)c(=O)o1,"inconclusive [inhibitor, partial curve, poor fit]",
COc1ccccc1C(=O)N/C(=C/c1ccco1)C(=O)Nc1ccc(C(=O)O)cc1,"inconclusive [inhibitor, partial curve]",
CC(C)N(C(=O)CO/N=C/c1cccc([N+](=O)[O-])c1)C(C)C,"inconclusive [inhibitor, partial curve]",
CCC(C)n1nccc1NC(=O)C(C)Cl (stereo not given),"inconclusive [inhibitor, single point]",
Fc1ccccc1CSc1nncn1NC/C=C/c1ccccc1,"inconclusive [inhibitor, single point]",
Cc1oc2ccccc2c1CC(=O)NCCCN(C)C,active: 2.08 µM,
CCCCN(C(=O)c1ccc(Cl)cc1)C1CC2CCC(C1)N2C (stereo not given),"inconclusive [inhibitor, single point]",
Cc1nc(N(C)C)c2sc(=S)n(Cc3ccccc3)c2n1,"inconclusive [inhibitor, partial curve]",
COc1ccccc1CCc1nnc(CCC(=O)NC(C)Cc2cccs2)o1 (stereo not given),,inactive: -2.8%
CCOC(=O)c1ccc(NC(=O)COc2ccccc2CNC2CCCC2)cc1,active: 4.65 µM,
COc1ccc(CNC(=O)c2sccc2-c2ccccc2)cc1OC,,inactive: -1.4%
Cc1cc(/C=N/NC(=O)C(=O)N2CCCC2)c(C)n1-c1cccc(Br)c1,,inactive: 14.5%

SMILES,Potency,"activity change, negative = inhibition"
CCCC(c1nnnn1CCOC)N1CCN(c2nc3ccccc3s2)CC1 (stereo not given),"inconclusive [inhibitor, single point]",
CCOCCCNC(=O)C(c1ccc(Cl)cc1)N1CCC2(CC1)OCCO2 (stereo not given),"inconclusive [inhibitor, partial curve, poor fit]",
CCOC(=O)CC(=O)CSc1n[nH]c(=O)[nH]c1=O,,inactive: 4%
C=CCSc1nc2c(cc1C#N)CCC2,,inactive: -7.02%
CC(=O)Nc1ccc2cc3ccc(NC(C)=O)cc3nc2c1,"inconclusive [inhibitor, single point]",
O=C(NCc1ccc2c(c1)OCO2)c1ccc(-c2ccc(Cl)cc2)o1,"inconclusive [inhibitor, full curve, poor fit]",
C=CCn1c(C)cc(C(=O)COC(=O)c2cncc(Br)c2)c1C,,inactive: 250%
CCCn1c2ccc(C)cc2c2nnc(SCCN3CCCCC3)nc21,"inconclusive [inhibitor, single point]",
COCCN(CC(=O)Nc1cccc(C)c1C)C(=O)Cn1cnc2ccccc2c1=O,"inconclusive [inhibitor, single point]",
CC(=O)c1ccc(OCCCC(=O)NC2=NCCS2)cc1,"inconclusive [inhibitor, single point]",
CCc1ccc(S(=O)(=O)Nc2cccc(-c3ccc4nncn4n3)c2)s1,"inconclusive [inhibitor, full curve, poor fit]",
CCOc1cccc(=O)c2c(C)n(CC(=O)c3ccccc3)c(C)c12,active: 8.28 µM,
COc1cc2c(cc1OC)C(c1cccc(C)c1)CC(=O)N2 (stereo not given),"inconclusive [inhibitor, partial curve]",
COc1ccc(N(C(=O)c2snc(C(N)=O)c2N)C(C(=O)NC2CCCC2)c2cccs2)cc1OC (stereo not given),"inconclusive [inhibitor, single point]",
COc1cccc(NC(=S)N2CCn3cccc3C2c2cccnc2)c1 (stereo not given),"inconclusive [inhibitor, single point]",
Cc1cc(C)n(C(=O)COc2ccccc2[N+](=O)[O-])n1,"inconclusive [inhibitor, full curve, poor fit]",
COc1ccc(C2=NS(=O)(=O)N(C)C(C(=O)NC(C)c3ccccc3)=C2)cc1OC (stereo not given),"inconclusive [inhibitor, single point]",
S=P(c1ccc(N2CCOCC2)cc1N1CCOCC1)(N1CCOCC1)N1CCOCC1,,inactive: -6.65%
O=C1CCCC2=C1C1(CCCCC1)N=C(Nc1nc3ccccc3o1)N2,"inconclusive [inhibitor, single point]",
COc1ccccc1NC(=O)C(=O)N/N=C(\C)CC(=O)Nc1ccccc1C(F)(F)F,"inconclusive [inhibitor, single point]",
CCOc1ccc(CCNC(=O)COC(=O)CSc2ccc(C)cc2)cc1OCC,"inconclusive [inhibitor, single point]",
CCOc1ccc2[nH]cc(S(=O)(=O)c3ccc(C)cc3)c(=O)c2c1,"inconclusive [inhibitor, single point]",
Cc1ccccc1CC(=O)N1CCCC(CNC(=O)c2ccc(F)cc2)C1 (stereo not given),,inactive: -15.4%
O=C(O)[C@@H](O)[C@@H](O)[C@H](O)[C@H](O)CO,active: 6.01 µM,

SMILES,Potency,"activity change, negative = inhibition"
COc1cccc(/C=N/Nc2nnc(C)n2N)c1OCc1ccccc1Cl,"inconclusive [inhibitor, single point]",
CC(NC(=O)CC(O)(C(F)(F)F)C(F)(F)F)c1ccccc1 (stereo not given),"inconclusive [inhibitor, single point]",
CCN(C(=O)C(C)N1C(=O)/C(=C/c2ccco2)SC1=S)C1CCS(=O)(=O)C1 (stereo not given),"inconclusive [inhibitor, partial curve]",
CN(C)c1ccc(C(=S)N2CCN(C(=S)Nc3cccc4ccccc34)CC2)cc1,,inactive: 16.3%
CCOC(=O)Cc1c(C)nc2c(C#N)c(C)nn2c1C,"inconclusive [inhibitor, partial curve, poor fit]",
CCCOC1CCCN(C(=O)c2ccc(OC3CCN(Cc4ccccn4)CC3)cc2)C1 (stereo not given),"inconclusive [inhibitor, partial curve]",
COC(=O)c1sc2nc(SCc3ccccc3C#N)n(N)c(=O)c2c1C,"inconclusive [inhibitor, single point]",
C/C(=N\Nc1nc(C)cc(-c2ccccc2)n1)c1ccc(F)cc1,"inconclusive [inhibitor, single point]",
Cc1cccc(C(=O)Nc2ccc3c(c2)nc(C)n3C)c1,,inactive: 202%
CN(C(=O)COC(=O)/C=C/c1ccc2c(c1)OCO2)c1c(N)n(Cc2ccccc2)c(=O)[nH]c1=O,"inconclusive [inhibitor, partial curve, poor fit]",
COc1nc(-c2ccccc2)ccc1-c1noc(COc2ccccc2)n1,,inactive: 4.28%
Cc1cc(C)c2oc(C(=O)N(Cc3ccccc3)C3CCS(=O)(=O)C3)cc(=O)c2c1 (stereo not given),,inactive: -21.9%
O=C1CCCc2c1cc(-c1ccccc1)n2-c1ccccc1,,inactive: 7.68%
O=C1N(c2ccccc2)C(c2ccc(Cl)cc2)N2CCCN12 (stereo not given),"inconclusive [inhibitor, partial curve, poor fit]",
CCCCN(Cc1ccco1)C(=O)C1CCCN(c2ncnc3c2nc2n3CCCCC2)C1 (stereo not given),active: 9.28 µM,
CCNC(=O)N1C(=O)C2(OCCO2)c2ccccc21,,inactive: 27.6%
O=C(Cn1ccc2ccccc2c1=O)NCCC(=O)NC1CCN(Cc2ccccc2)CC1,,inactive: 18%
Cc1ccc(S(=O)(=O)N2CCCCC2)cc1C(=O)Nc1ccc(S(=O)(=O)Nc2ncccn2)cc1,,inactive: -20.9%
Cc1cc(-c2ccc(C)c(S(=O)(=O)NCCCN3CCN(c4ccccc4)CC3)c2)on1,"inconclusive [inhibitor, partial curve, poor fit]",
CSc1nc2ccsc2c(=O)n1-c1cccnc1,"inconclusive [inhibitor, single point]",
Cc1cc(NC(=O)CSc2nc3c(c(=O)n2C)SCC3)no1,,inactive: 12%
Cc1cccc(NC(=S)NCc2ccc3c(c2)cc(C)n3C)c1C,"inconclusive [inhibitor, single point]",

# Source: PubChem BioAssay AID504832 (National Center for Advancing Translational Sciences (NCATS), 2011)
